# Measured values taken from article PMC12136788.
# The list shows a part of the results.
# T1: UNK ZnF1-6 (called full-length) (human, UniProt Q9C0B0 30-357)
# T1 sequence: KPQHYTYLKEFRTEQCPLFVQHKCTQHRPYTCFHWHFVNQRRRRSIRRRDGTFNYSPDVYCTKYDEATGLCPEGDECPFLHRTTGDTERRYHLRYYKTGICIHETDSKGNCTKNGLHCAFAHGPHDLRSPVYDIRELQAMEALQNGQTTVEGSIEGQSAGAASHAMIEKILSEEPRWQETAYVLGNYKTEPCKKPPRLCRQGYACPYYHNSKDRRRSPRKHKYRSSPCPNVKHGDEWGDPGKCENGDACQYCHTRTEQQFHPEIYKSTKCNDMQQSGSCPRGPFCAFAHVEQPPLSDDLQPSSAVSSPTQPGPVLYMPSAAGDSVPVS
# B1: chr12:95077336:95077437:-|3pUTR|ENSG00000180263|msi1|total|mutant (ssRNA)
# RNA: GGGAGUUCUACAGUCCGACGAUCUCCUCAUUGACCCAUCCGCAUCUCUGUUUAUCCAAGACUUCUCUGUGACCGCUGACCCUCCGUCUUUCUCUCCCCUAUUCCUCCAGACCCGAUCCUGUCUCCUUCCUGCAGCCCCGACACCAACAGAGGAUUGAGCAUCA
# B2: chr1:9850293:9850394:-|3pUTR|ENSG00000178585|unk|FALSE|unique (ssRNA)
# RNA: GGGAGUUCUACAGUCCGACGAUCCGGUAUCUGGCUUCCCUGGAAGCUCUCCGAGCUCUGGUGCUUUAGUUAGGUCAUUUUUUUAGAAAUGUGAAGAGGUCUGAUUGGCUGCUUAAACUGGAAAGGAUCUGUGAUUGGCUGGUUCAACAGAGGAUUGAGCAUCA
# B3: chr5:38883864:38883977:+|CDS|ENSG00000145623|unk|FALSE|unique (ssRNA)
# RNA: GGGAGUUCUACAGUCCGACGAUCGUUUUCCCUAAAGAUAAGCUGGUGGAAGAAGGCACCAAUGUUACCAUUUGUUACGUUUCUAGGAACAUUCAAAAUAAUGUAUCCUGUUAUUUGGAAGGGAAACAGAUUCAUGGAGAACAACAACAGAGGAUUGAGCAUCA
# B4: ENSG00000124766:be:win_3501|3pUTR|ENSG00000124766|bound_else_gene|NA|bound_elsewhere_windowed (ssRNA)
# RNA: GGGAGUUCUACAGUCCGACGAUCAACUUGUAAACCACAUCUUUUUUGCACUUUUUUUAUAAGCAAAAACGUGCCGUUUAAACCACUGGAUCUAUCUAAAUGCCGAUUUGAGUUCGCGACACUAUGUACUGCGUUUUUCAUUCUCAACAGAGGAUUGAGCAUCA
# B5: ENSG00000136451:be:win_3351|3pUTR|ENSG00000136451|bound_else_gene|NA|bound_elsewhere_windowed (ssRNA)
# RNA: GGGAGUUCUACAGUCCGACGAUCGAAGGCAACACAUUCCUACACUUUUAAUGUAUAUGUUUGUUAUAAUGUCCAUGUAAACAUGCCCUAUGUUUGUGCCUUUUAAUUAGUUUGUCUCAAUAAACAAAAUGUAGAGAAAAAUAUCAACAGAGGAUUGAGCAUCA
# B6: chr4:140442261:140443444:-|three_prime_utr|ENSG00000205301|control|control|control (ssRNA)
# RNA: GGGAGUUCUACAGUCCGACGAUCCUCUGUAAUACCUGGAACCUCAGAUAACCUUGAUAUCUAAUGGCAUGUUUCAGAAAUUGUAGUAAUGAAAAUACAUAAUUAUCUAGCAGAUAAGUAAACAAUGCAUAAACUAGUAGACUUCAACAGAGGAUUGAGCAUCA
# Molecular target: T1, UNK ZnF1-6 (called full-length)
# Experiment: nsRBNS (natural sequence RNA bind-n-seq); RBNS binding buffer (assumed for nsRBNS): 25 mM Tris pH 7.5, 150 mM KCl, 3 mM MgCl2, 0.01% Triton X-100, 500 ug/ml BSA, 20 U/ml SUPERase-In, 4 C; UNK is unkempt and MSI1 is Musashi-1; names of the RNAs are library labels; protein concentration not given here; high values mean tight binding
row,Binder,binding signal [enrichment R]
1,B1,1.01
2,B2,5.47
3,B3,0.334
4,B4,0.497
5,B5,2.53
6,B6,1.45
